Data as given in PubChem BioAssay AID686971 (National Center for Advancing Translational Sciences (NCATS), 2013).
Among all 360,000 compounds or so, about 7,500 (2.1%) were called active. Inconclusive means that the source gave no clear call. Such entries were picked first, then a sample of the others. Calls follow the shape of the dose curve; as a rule, active = well fitted cell-killing curve with a large enough effect; inconclusive = small, poorly fitted or top-dose-only effect, or effect the other way, or another doubt; inactive = no such curve, though single readings can be large or run the other way. No potency is given beside an inconclusive call; the fits are too rough.

experiment: qHTS for induction of synthetic lethality in tumor cells producing 2HG: qHTS for the HT-1080-IDH1KD cell line; conditions: HT-1080 IDH1 knockdown viability, ATP luminescence, 48 h; activity, negative = toxicity: at 46.1 µM (top of the series) unless noted;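 as to activity, negative = toxicity: 0% = DMSO wells and -100% = cell-free medium wells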
In short: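 After a 2 h attachment period, IDH1KD HT-1080 cells took pin-transferred compound for 48 h at 37 °C; ATP-based luminescence after 10 min room-temperature reagent incubation reported viability.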
Potency is read from the fitted curve at half-maximal effect; tags tell the direction and shape of the fitted curve.

| Structure (SMILES) | activity, negative = toxicity | Potency |
| --- | --- | --- |
| COc1cccc(-c2c(C(=O)N/N=C(\C)c3cccs3)nnn2-c2nonc2N)c1 | inactive: 1.51% |  |
| COc1ccccc1/C=N/n1c(C)nnc1-n1nc(C)cc1C | inactive: 5.88% |  |
| Cc1ccc2c(c1)cc1c(=O)n(CC(=O)NCc3ccccn3)nc(C)n12 | inactive: 2.79% |  |
| Cc1cc(C)cc(NC(=O)Cn2nnc(C(=O)NCc3ccc4c(c3)OCO4)c2N)c1 |  | inconclusive [cytotoxic, single point] |
| COc1ccc(S(=O)(=O)N2c3ccc(F)cc3CCC2C)cc1 (stereo not given) |  | active: 3.66 µM |
| O=C(NCCOc1cccc(Oc2ccccc2)c1)c1cc(-n2cnnc2)ccc1Cl |  | inconclusive [cytotoxic, single point] |
| O=C(c1cccc([N+](=O)[O-])c1)N1CCN(Cc2ccc3c(c2)OCO3)CC1 | inactive: 10.9% |  |
| Cc1ccc(S(=O)(=O)N(C)C)cc1NC(=O)COC(=O)Cc1n[nH]c(=O)c2ccccc12 | inactive: -4.32% |  |
| CCOC(=O)N1CCN(S(=O)(=O)c2ccc(C(=O)NNc3nc4c(C)cc(C)cc4s3)cc2)CC1 |  | inconclusive [cytotoxic, partial curve] |
| Cc1ccc(NC(=O)C2(C)CCCN2C)cc1C (stereo not given) |  | inconclusive [rising, single point] |
| O=C(c1ccc(Cl)cc1[N+](=O)[O-])N1CCN(c2ccccn2)CC1 | inactive: 1.5% |  |
| Cc1ccc(C)c(-c2[nH]ncc2CN2CCCC(CO)(Cc3ccccc3C)C2)c1 (stereo not given) |  | inconclusive [cytotoxic, single point] |
| COc1ccc(N(C)S(=O)(=O)c2cccc(C(=O)N(C)Cc3ccc(C)o3)c2)cc1 | inactive: -9.91% |  |
| COc1ccccc1-c1cncc(NC(C)=O)n1 | inactive: 3.59% |  |
| COCCNC(=S)Nc1ccc2nc(N3CCN(C)CC3)cc(C)c2c1 | inactive: -3.04% |  |
| CCc1ccccc1NC(=O)c1ccc([N+](=O)[O-])s1 |  | inconclusive [cytotoxic, single point] |
| O=C(NNC(=O)C(c1ccccc1)c1ccccc1)c1ccccn1 |  | inconclusive [cytotoxic, partial curve] |
| Cc1ccc(C(C)C)c(OCC(=O)NC(=S)Nc2ccccc2N2CCOCC2)c1 |  | inconclusive [cytotoxic, single point] |
| CCOCc1nnc(NC(=O)COc2ccc3c(c2)OCO3)s1 |  | inconclusive [cytotoxic, full curve] |
| CC1(C(=O)Nc2nnc(SCc3ccccc3)s2)Cc2ccccc2C(=O)O1 (stereo not given) | inactive: 10.9% |  |
| CCOC(=O)c1ccc(N/C=C/C(=O)c2ccc(OC)c(OC)c2)cc1 |  | inconclusive [cytotoxic, single point] |
| CCN1CCN(C(=S)c2ccc(Cl)c(Cl)c2)CC1 | inactive: -0.79% |  |
| CCN(CC)c1nc(NC2CCN(C)CC2)c2cc(OC)c(OC)cc2n1 |  | inconclusive [cytotoxic, partial curve] |

| Structure (SMILES) | activity, negative = toxicity | Potency |
| --- | --- | --- |
| Cc1cccc(C)c1NS(=O)(=O)c1ccc(NC(=O)c2ccc(Cl)c([N+](=O)[O-])c2)cc1 |  | inconclusive [cytotoxic, single point] |
| CCOC(=O)C1=C[C@@H](C2CCCCC2)N(S(=O)(=O)c2ccc([N+](=O)[O-])cc2)[C@H]1c1ccccc1 |  | active: 8.2 µM |
| CC(=O)NC(=S)NNC(=O)c1ccc(Br)cc1 |  | inconclusive [cytotoxic, full curve, poor fit] |
| COc1ccc(CNCCNC(=O)c2nonc2N)cc1OC | inactive: 1.78% |  |
| CCN(CC(=O)Nc1ccc(NC(C)=O)cc1)C(=O)c1ccc(N(C)S(=O)(=O)c2ccc(C)cc2)cc1 | inactive: -14.3% |  |
| CCOc1cccc2sc(N(CCN(C)C)C(=O)/C=C/c3cccs3)nc12 |  | inconclusive [cytotoxic, single point] |
| COc1cccc(C(CC(=O)Nc2cccc3ccccc23)NC(=O)c2ccccc2)c1 (stereo not given) |  | inconclusive [cytotoxic, single point] |
| CCOC(=O)c1c(C)[nH]c(C)c1C(=O)CSc1nc2ccccc2c(=O)n1-c1ccc(F)cc1 |  | inconclusive [cytotoxic, single point] |
| COc1ccc(N(C)S(=O)(=O)c2cccc(C(=O)NC3CCCCCC3)c2)cc1 |  | inconclusive [cytotoxic, single point] |
| COc1ccc(-c2csc(Nc3ccc(C)cn3)n2)cc1 |  | inconclusive [cytotoxic, single point] |
| CC(=O)c1c(CSc2ccccc2)oc2ccc(O)c(CN(C)C)c12 |  | inconclusive [cytotoxic, single point] |
| Cc1cccc(Cn2c(C(C)(C)C)cc3cccnc32)c1 |  | inconclusive [cytotoxic, single point] |
| CSc1ccc(C(=O)/C=C/c2ccc(N)cc2)cc1 |  | inconclusive [cytotoxic, single point] |
| COc1ccc2ccccc2c1/C=N/NC(=O)c1nnn(-c2nonc2N)c1C(C)C |  | inconclusive [cytotoxic, single point] |
| CC(C)C(N)c1csc(Nc2ccc(C(=O)N(C)Cc3ccccc3)cn2)n1 (stereo not given) |  | active: 14.6 µM |
| NC(=O)CC(NC(=O)c1ccccc1)c1ccc(N2CCC(Cc3ccccc3)CC2)c([N+](=O)[O-])c1 (stereo not given) |  | inconclusive [cytotoxic, single point] |
| O=C(CCl)Nc1cccc(-c2cnc3ccccc3n2)c1 |  | inconclusive [cytotoxic, single point] |
| Nn1c(SCc2ccc([N+](=O)[O-])cc2)nc2ccccc2c1=O | inactive: -0.329% |  |
| CC(C)COc1ccc(CNC(=S)NCc2ccccc2)cc1 |  | inconclusive [cytotoxic, single point] |
| Cc1sc2ncnc(SCC(=O)Nc3cccc(S(N)(=O)=O)c3)c2c1C |  | inconclusive [cytotoxic, single point] |
| CC1(Oc2ccccc2-c2ccn[nH]2)CCN(Cc2ccc(OC(F)(F)F)cc2)C1 (stereo not given) |  | inconclusive [cytotoxic, single point] |
| CN1CCN(CCCNC(=O)CCCOc2cc(=O)n(C)c3ccccc23)CC1 | inactive: 0.622% |  |
